What all share (test): mean normalised NGS count of phage-displayed peptide after selection on bait (% of reads); baits are purified protein domains named by gene / domain / UniProt id / residues; peptides come from disordered regions of human proteins; higher = stronger enrichment / binding
Assay [1] has as its target GABARAPL1_ATG8__Q9H0R8_2_115.
Assay [2] addresses MAP1LC3B_ATG8__Q9GZQ8_2_119.
Assay [3] deals with GABARAPL2_ATG8__P60520_2_115.
The target of another assay is T1, SPOP_MATH__O43791_19_176.
T1 chain: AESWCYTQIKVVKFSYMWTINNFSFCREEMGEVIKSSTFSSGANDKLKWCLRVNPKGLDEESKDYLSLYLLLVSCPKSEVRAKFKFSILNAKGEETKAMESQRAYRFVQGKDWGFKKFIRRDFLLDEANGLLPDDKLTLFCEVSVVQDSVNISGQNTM
Particulars: replicate selections in which the peptide was seen: 4.

Where [4] appears, read: replicate selections in which the peptide was seen: 6.
Where [5] appears, read: replicate selections in which the peptide was seen: 5.
The mark [6] stands for this setting: replicate selections in which the peptide was seen: 4.
[7] abbreviates: replicate selections in which the peptide was seen: 2.
The mark [8] stands for this setting: replicate selections in which the peptide was seen: 3.

This is one part of the list. Read counts after selection give these values, which scatter widely.

Sequence of GABARAPL2_ATG8__P60520_2_115 (chain, as listed by the source): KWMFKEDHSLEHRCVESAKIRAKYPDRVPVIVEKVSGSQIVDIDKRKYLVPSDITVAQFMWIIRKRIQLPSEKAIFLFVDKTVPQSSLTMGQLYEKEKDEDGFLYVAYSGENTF

On to LPPEDDTWDNVYYYDE [CDH1 742-757 mut P12830.R749W], for which the “mean normalised NGS count” value amounted to 0.199 in assay [1] (setting [4]) and 0.941 in assay [2] (setting [5]).
As for TVFETLDIGWQLLPIF [ATP6V1B2 472-487 mut P21281.R485P], the figures for the “mean normalised NGS count” value in assay [1] (setting [4]), in assay [3] (setting [4]) and in assay [2] (setting [5]) were 2.25, 0.082 and 0.651, respectively.
For the molecule TTVREERFEVLHGREA [TTN 909-924 wt], the “mean normalised NGS count” value in assay [1] (setting [5]) stood at 0.264; in assay [3] (setting [6]), 0.00648; in assay [2] (setting [4]), 0.841.
Consider GTNQHFVMVEVHHPDS [WHRN 716-731 mut Q9P202.R728H], for which the results for the “mean normalised NGS count” value in assay [1] (setting [6]) and in assay [3] (setting [4]) were 0.0113 and 0.121, respectively.
Take PPAPLAHSDDYVHISL [TSC1 396-411 wt]: the entries for the “mean normalised NGS count” value in assay [1] (setting [6]) and in assay [2] (setting [7]) were 0.0058 and 0.0277, respectively.
As for AEEEWSYLEEEEGVSI [TTN 10418-10433 mut Q8WZ42.S10425L], the results for the “mean normalised NGS count” value in assay [1] (setting [4]) and in assay [2] (setting [5]) were 0.117 and 0.0336, respectively.
Turning to IVEKRESGTTAWQLVN [TTN 29704-29719 wt], the “mean normalised NGS count” value in assay [1] (setting [4]) was 0.16; in assay [3] (setting [4]), 0.0662; with SPOP_MATH__O43791_19_176, 0.394.
Turning to LAHLDDYVHISLPQAT [TSC1 400-415 mut Q92574.S403L], the “mean normalised NGS count” value in assay [1] (setting [5]) was 0.00831; in assay [2] (setting [4]) it was 0.101.
On the same counts, the results for PTLPDISDDKDEWQFL [BUB1 478-493 mut O43683.S492F] are 0.0224 and 0.452.
Take WTHLSSKEVDLSTGEL [SQSTM1 338-353 mut Q13501.P348L]: the “mean normalised NGS count” value in assay [1] (setting [4]) is 0.028; in assay [3] (setting [4]), 0.0354; in assay [2] (setting [4]), 5.15.
For the molecule MQESFVEMSSSSFMGI [TTN 34218-34233 wt], the “mean normalised NGS count” value in assay [1] (setting [5]) amounted to 0.0606.
As to DKDEWQFLDQNEDAFE [BUB1 486-501 mut O43683.S492F], the “mean normalised NGS count” value is 0.0181 in assay [1] (setting [4]), 0.0056 in assay [3] (setting [8]) and 0.0695 in assay [2] (setting [8]).
For EDDQRQADRDWYMMDE [DHX38 316-331 wt], in assay [1] (setting [5]), the “mean normalised NGS count” value came to 0.016.
For the molecule SSRSERGLVEEEWVIV [ANK2 1580-1595 wt], the “mean normalised NGS count” value was determined as 0.18 in assay [1] (setting [4]) and 2.17 in assay [2] (setting [4]).
For the molecule NLSLNEAFVKVPRDDK [FOXC1 123-138 wt], the “mean normalised NGS count” value in assay [1] (setting [5]) worked out at 0.0123.
Turning to LNADSWDFVAAIISIP [KCND1 587-602 mut Q9NSA2.R592W], the “mean normalised NGS count” value in assay [1] (setting [5]) is 0.0666; in assay [3] (setting [4]), 0.0246; in assay [2] (setting [7]), 0.00372.
Turning to PPAPLAHLDDYVHISL [TSC1 396-411 mut Q92574.S403L], the “mean normalised NGS count” value was determined as 0.266 in assay [1] (setting [5]), 0.0423 in assay [3] (setting [4]) and 0.885 in assay [2] (setting [6]).
As to EEFQYIGELQGYDIME [MSH2 852-867 mut P43246.S860L], the “mean normalised NGS count” value in assay [1] (setting [5]) turned out to be 0.0586; in assay [3] (setting [7]), 0.00335.
In the case of QSDKTPEELFHLLGAD [SLC2A1 474-489 mut P11166.P485L], in assay [1] (setting [5]), the “mean normalised NGS count” value turned out to be 0.13.
On the same count and under the same terms, in the case of YDGWNQLNYTTEELRN [SLC7A9 232-247 mut P82251.I241T] it was 0.0435.
Consider WQFLDQNEDAFEAQFQ [BUB1 490-505 mut O43683.S492F], for which the “mean normalised NGS count” value in assay [1] (setting [5]) stood at 0.0545; in assay [2] (setting [8]), 0.00612.
With VNTEWEKLNLHSADWQ [DMD 2911-2926 wt], the “mean normalised NGS count” value in assay [1] (setting [5]) is 0.0141.
As to EVSQVLKGYDWTLVPM [SOX9 76-91 mut P48436.A76E], the results for the “mean normalised NGS count” value in assay [1] (setting [4]) and in assay [3] (setting [4]) were 0.757 and 0.358, respectively.
Consider NLLLNEAFVKVPRDDK [FOXC1 123-138 mut Q99958.S125L], for which the “mean normalised NGS count” value in assay [1] (setting [6]) amounted to 0.0201.
Take GDDDWTHLSSKEVDPS [SQSTM1 334-349 wt]: the “mean normalised NGS count” value in assay [1] (setting [5]) is 0.112; in assay [2] (setting [4]) it was 3.97.
Turning to SITGTTVREEHFEVLH [TTN 905-920 mut Q8WZ42.R915H], the “mean normalised NGS count” value in assay [1] (setting [4]) came to 0.532; in assay [2] (setting [4]), 3.12.
Regarding EVTRHEVSAEEEWSYL [TTN 10410-10425 mut Q8WZ42.S10425L], the “mean normalised NGS count” value worked out at 0.0309 in assay [1] (setting [6]) and 0.0759 in assay [2] (setting [6]).
For YDGWNQLNYITEELRN [SLC7A9 232-247 wt], the “mean normalised NGS count” value in assay [1] (setting [6]) was 0.0133.
For the molecule IVEKHESGTTAWQLVN [TTN 29704-29719 mut Q8WZ42.R29708H], the “mean normalised NGS count” value in assay [1] (setting [6]) came out at 0.0487; in assay [3] (setting [4]), 0.0127.
For the molecule SSQSERGLVEEEWVIV [ANK2 1580-1595 mut Q01484.R1582Q], the “mean normalised NGS count” value in assay [1] (setting [5]) is 0.182; in assay [2] (setting [4]), 1.09.
SITGTTIREERFEVLH [TTN 905-920 mut Q8WZ42.V911I]: the results for the “mean normalised NGS count” value in assay [1] (setting [5]) and in assay [2] (setting [5]) were 0.627 and 0.0258, respectively.
SITGTTVREERFEVLH [TTN 905-920 wt]: the “mean normalised NGS count” value in assay [1] (setting [4]) amounted to 0.614; in assay [2] (setting [4]) it was 0.575.
Regarding NLSLNEAFVKVPRDDK [FOXC2 123-138 wt], the “mean normalised NGS count” value in assay [1] (setting [5]) is 0.0123.
Take GDDDWTHLSSKEVDLS [SQSTM1 334-349 mut Q13501.P348L]: the “mean normalised NGS count” value in assay [1] (setting [4]) stood at 0.76; in assay [3] (setting [7]), 0.013; in assay [2] (setting [4]), 16.
Take NLLLNEAFVKVPRDDK [FOXC2 123-138 mut Q99958.S125L]: in assay [1] (setting [6]), the “mean normalised NGS count” value came to 0.0201.
For the molecule EERFEVLHGREAKVTE [TTN 913-928 wt], the “mean normalised NGS count” value in assay [1] (setting [4]) stood at 0.0563; in assay [2] (setting [4]) it was 0.144.
For the molecule KNDAGMQEAFTTLSVL [TTN 8495-8510 mut Q8WZ42.A8505T], the “mean normalised NGS count” value was 0.035 in assay [1] (setting [6]) and 1.83 in assay [2] (setting [4]).
With DWIQLQYSQSLIEKDQ [CARD10 403-418 mut Q9BWT7.R404W], the figures for the “mean normalised NGS count” value in assay [1] (setting [5]) and in assay [2] (setting [8]) were 0.107 and 0.457, respectively.
TTVREEHFEVLHGREA [TTN 909-924 mut Q8WZ42.R915H]: the “mean normalised NGS count” value in assay [1] (setting [5]) amounted to 0.0197.
REFALEDFTFLRDPWN [SCN1A 176-191 mut P35498.G177E]: the “mean normalised NGS count” value in assay [1] (setting [4]) was 0.0141.
In the case of EDGWWTVERNGQAGFV [PSTPIP1 393-408 mut O43586.R405C], the “mean normalised NGS count” value was found to be 0.197 in assay [1] (setting [4]) and 0.0148 in assay [3] (setting [4]).
Regarding VSKAEEEFFNIIFAEL [DNAI2 545-560 mut Q9GZS0.D554N], the “mean normalised NGS count” value in assay [1] (setting [5]) was determined as 0.144; in assay [2] (setting [7]), 0.0227.
As for AMDFEVLSTKFEMQDL [ZNF469 3015-3030 mut Q96JG9.T3016M], the entries for the “mean normalised NGS count” value in assay [1] (setting [5]) and in assay [2] (setting [5]) were 0.00738 and 2.07, respectively.
Consider WTMVDPVREAREGGLI [SURF1 137-152 mut Q15526.R137W], for which the “mean normalised NGS count” value in assay [1] (setting [4]) came to 0.451; in assay [2] (setting [4]), 0.833.
Turning to EEHFEVLHGREAKVTE [TTN 913-928 mut Q8WZ42.R915H], the “mean normalised NGS count” value in assay [1] (setting [5]) was found to be 0.0167; in assay [2] (setting [4]) it was 0.0585.

These data come from the supplement of paper PMC11369174, “Proteome-scale characterisation of motif-based interactome rewiring by disease mutations” (Molecular Systems Biology, 2024).
